From PMC12040169 (PLOS Biology, 2025)
The list shows a part of the results.

tested on: T1, C. trachomatis L2/434/Bu expressing GFP (CTL2-GFP); parameters: species or system HeLa; C. trachomatis total inclusion area by high-content imaging, normalised to DMSO; settings: total inclusion area; 28.5 h, 10 µM; inhibitor
T1 construct: L2/434/Bu GFP intracellular growth in HeLa cells
Outline: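 High-content images of fixed, Hoechst-stained infected cultures supply inclusion area and count (growth) plus nuclei number (viability), complementing bulk GFP/resorufin fluorescence. MIC determination is unchanged from the primary assay.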

Row | Compound | % of control remaining
1 | CC(C)C(=O)Nc1ccc(Oc2ccc(C(=O)O)c(C(=O)O)c2)cc1 [CBK263463] | 102.615
2 | O=C(CSCc1cccc2ccccc12)Nc1c[nH]c(=O)[nH]c1=O [CBK268500] | 122.083
3 | O=C(Nc1cccc2ccccc12)N1CCC(n2c(=O)[nH]c3ccccc32)CC1 [CBK149858] | 98.4511
4 | CCCC(=O)Nc1sc(C)c(C)c1C(=O)Nc1ccccc1OC [CBK262455] | 72.1396
5 | CC(=O)Nc1nc2ccc(S(=O)(=O)N3CCCC3)cc2s1 [CBK287604] | 87.1957
6 | [O-][S+]1c2ccccc2Oc2ccccc21 [CBK027634] | 90.2544
7 | O=c1oc2ccccc2c(NCCN2CCCCC2)c1[N+](=O)[O-] [CBK218805] | 82.6899
8 | CCNc1cc(-c2ccc(OC)cc2)ncn1 [CBK090883] | 91.5841
9 | Cc1cc(C)cc(N(CCC#N)C(=O)CSc2nnc[nH]2)c1 [CBK296955] | 50.2156
10 | Cn1cc(CN2CCCN(C(=O)c3cc4ccccc4[nH]3)CC2)cn1 [CBK304920] | 15.1338
11 | COc1ccc(C2C(C(C)=O)=C(O)C(=O)N2CCC(=O)O)cc1 (stereo not shown) [CBK263763] | 99.9938
12 | Cc1cc(C)n(-c2nc3cc(Cl)ccc3nc2Nc2ccc3c(c2)OCO3)n1 [CBK268380] | 105.951
13 | O=C(NC1CCNCC1)c1cc2ccccc2[nH]1 [CBK168609] | 67.4144
14 | OCCn1ncc2c(NCc3cccc(Cn4ccnc4)c3)ncnc21 [CBK304184] | 31.8073
15 | O=C(CSc1ncccn1)N/N=C/c1ccncc1 [CBK262401] | 97.5876
16 | COc1ccc([C@@H](O)[C@H]2CCCNC2)cc1 [CBK282298] | 93.2626
17 | CC(C)Cn1c(=O)c2c(nc3n2CCS3)n(C)c1=O [CBK307109] | 66.0739
18 | COCc1nnc(Sc2nccnc2NC(C)C)s1 [CBK115204] | 81.4381
19 | O[C@H]1[C@H](NCc2ccccn2)[C@H]2CO[C@H](O2)[C@@H]1N1CCC(Cc2ccccc2)CC1 [CBK288814] | 102.877
20 | COC(=O)c1ccc(OCCn2nc(C)c(C)c(C#N)c2=O)cc1 [CBK305676] | 120.557
21 | CCOC(=O)[C@H]1CC[C@]2(CC1)CN(C)C(=O)c1ccccc1O2 [CBK284848] | 90.4161
22 | Cc1cccc(NCC(O)Cn2c3ccc(Br)cc3c3cc(Br)ccc32)c1 (stereo not shown) [CBK261419] | 79.5114
23 | Cc1cc(C)n(CC2CCCCN2Cc2ccccn2)n1 (stereo not shown) [CBK304853] | 84.5554
24 | O=S(=O)(Nc1ccc(N2CCOCC2)cc1)c1cccc(OC(F)(F)F)c1 [CBK296759] | 93.8598
25 | Cc1cc(N2CCC(N3CCN(C)CC3)CC2)nc(N)n1 [CBK167964] | 20.8665
26 | O=C(NCc1ccccc1OC1CCNC1)c1ccc(-c2cccc(C(F)(F)F)c2)o1 (stereo not shown) [CBK034151T] | 64.5798

Row | Compound | % of control remaining
27 | O=C(NC1CCCC1)c1ccc(-n2ccnc2)c(-n2cccc2)c1 [CBK285368] | 104.768
28 | CSc1nc(NC(=O)Cc2c[nH]c3ccccc23)cc(N2CCNCC2)n1 [CBK050265T] | 81.1341
29 | CCOC(=O)N(C)c1c(CC)nc2ccc(C(=O)Nc3cc(-c4ccccc4)ccc3OC)cn12 [CBK145478] | 108.34
30 | O=C(Nc1cc(Cl)ccc1C(=O)O)c1ccc2c(c1)C(=O)N(Cc1cccnc1)C2=O [CBK266455] | 112.346
31 | OCC1CCN(Cc2ccc(OC3CCCC3)cc2)C1 (stereo not shown) [CBK282929] | 70.8619
32 | O=C1CN(S(=O)(=O)c2ccc(NS(=O)(=O)c3ccc4ccccc4c3)cc2)CC(=O)N1 [CBK262513] | 112.854
33 | Cc1ccc2c(c1)C(c1c[nH]c3ccccc13)(c1c[nH]c3ccccc13)C(=O)N2C [CBK266401] | 136.61
34 | O=C(c1nccs1)C1CCN(C(=O)c2cccs2)CC1 [CBK284159] | 68.3452
35 | COC(=O)c1ccccc1NC(=O)COc1ccc(Br)c(C)c1 [CBK263152] | 98.2391
36 | Cc1ccn(CCNC(=O)c2[nH]c3c(Cl)cccc3c2C)n1 [CBK282608] | 135.398
37 | CC(NS(=O)(=O)Cc1ccccc1Cl)C(=O)N1CCCCC1 (stereo not shown) [CBK304928] | 6.565
38 | COc1cccc(C(=O)N2CCC(c3cc4ncccc4[nH]3)CC2)c1 [CBK283398] | 91.2551
39 | CC(C)(C)c1ccc(OCC(O)Cn2c(CO)nc3ccccc32)cc1 (stereo not shown) [CBK293973] | 86.3244
40 | Cc1nnc(CN(CC2CCCO2)C2CCCC2)n1C1CC1 (stereo not shown) [CBK304147] | 79.4379
41 | COc1cc(/C(CS(C)(=O)=O)=N\O)cc(OC)c1OC [CBK022984] | 46.5336
42 | CCN(CC)c1ccc(C(=O)Cn2c(=O)n(S(=O)(=O)c3ccc4ccccc4c3)c3ccccc32)cc1 [CBK106505] | 94.9567
43 | Cc1nn2c(=O)c(CCC(=O)O)c(C)[nH]c2c1-c1ccccc1 [CBK287011] | 100.253
44 | CN1CCN(C(=O)Cn2cccc(C(=O)Nc3ccc(F)cc3)c2=O)C(c2ccccc2)C1 (stereo not shown) [CBK286045] | 100.951
45 | O=C(OCc1nc2cc3ccccc3cc2[nH]1)C1CCCCC1 [CBK018307] | 46.9771
46 | O=C(CN1CCOCC1)Nc1ccc(Cl)cc1C(=O)c1ccccc1 [CBK086450] | 107.707
47 | O=C(NCc1ccc(Cl)c(Cl)c1)N1CCCCC1CO (stereo not shown) [CBK156164] | 104.953
48 | O=C(c1ccc(F)cc1)N1CCN(c2ccccn2)CC1 [CBK287795] | 85.8829
49 | CC1CCc2c(sc3ncnc(SCC(=O)N(C)C)c23)C1 (stereo not shown) [CBK305946] | 34.636
50 | CCc1c(C)nc2c(C(=O)NCc3cc(C)on3)cnn2c1C [CBK162150] | 52.9333
51 | COc1ccc(OC)c2[nH]c(C(=O)N3CCCC34CC=CC4)cc12 [CBK282814] | 116.936
52 | O=C(CCc1c[nH]c2ccccc12)OCc1nnc(-c2ccccc2)o1 [CBK269642] | 96.0822
